Experimental data taken from the supplement of paper PMC7826260.
Some of the results follow. One pool of 16,384 single-stranded DNAs met each Rep nickase domain in vitro for 1 h at 37 °C with 3 µM enzyme; only the middle of the 90-letter strands is printed. Values are log2 of uncut reads against the no-enzyme pool; more negative means more cut, near 0 not cut, and no call is made. Shares of all reads are compared, so uncut sequences can rise above 0 when many others are cut.

test system: T1, Rep nickase domain of tomato golden mosaic virus; test: uncleaved DNA left, log2 of reads against the no-enzyme library (log2 ratio); higher = less cleavage (more negative = more Rep cleavage of the k-mer); sequences stand for … in CTCGTCCG…ACCGGAGA
T1 sequence (Rep 1-124, printed without the tag): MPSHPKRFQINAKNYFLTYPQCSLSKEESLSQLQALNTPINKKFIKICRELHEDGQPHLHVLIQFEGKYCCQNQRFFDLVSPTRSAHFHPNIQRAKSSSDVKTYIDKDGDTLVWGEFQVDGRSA
Experimental: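 A pool of 90-nt single-stranded DNAs with seven random bases just before the constant AC of the nick site (name = the seven bases) was cut by 3 µM recombinant His6-SUMO-tagged Rep nickase domain (300 nM DNA, 50 mM HEPES pH 8.0, 50 mM NaCl, 1 mM MnCl2, 1 h, 37 °C, three replicates). Uncut DNA was amplified and sequenced.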

**Q.** With GGGAGGA as the sequence, how does the “uncleaved DNA left (log2)” value read?
**A.** 0.0133

**Q.** With CATTCTG as the sequence, how does the “uncleaved DNA left (log2)” value read?
**A.** -0.0289

**Q.** With ACTCGGA as the sequence, how does the “uncleaved DNA left (log2)” value read?
**A.** -0.0282

**Q.** With TCACGCG as the sequence, how does the “uncleaved DNA left (log2)” value read?
**A.** -0.154

**Q.** CAACTGA was tested. Which “uncleaved DNA left (log2)” value did it give?
**A.** -0.161

**Q.** How did the “uncleaved DNA left (log2)” value turn out when ATCGGAT was run?
**A.** 0.107

**Q.** For TTGGTAG, which “uncleaved DNA left (log2)” value is on record?
**A.** 0.00169

**Q.** Which “uncleaved DNA left (log2)” value does the source give for TGTCGGG here?
**A.** -0.0453

**Q.** With TACTCCG as the sequence, how does the “uncleaved DNA left (log2)” value read?
**A.** -0.132

**Q.** TGGTCGA was tested. Which “uncleaved DNA left (log2)” value did it give?
**A.** -0.0131

**Q.** GTTACGG was tested. Which “uncleaved DNA left (log2)” value did it give?
**A.** 0.16

**Q.** CTGGCAT was tested. Which “uncleaved DNA left (log2)” value did it give?
**A.** -0.0749

**Q.** How did the “uncleaved DNA left (log2)” value turn out when GTGCGTG was run?
**A.** 0.0196

**Q.** GTGTTAT was tested. Which “uncleaved DNA left (log2)” value did it give?
**A.** 0.024

**Q.** Which “uncleaved DNA left (log2)” value does the source give for AGAGAAG here?
**A.** 0.198

**Q.** For GGGGTTA, which “uncleaved DNA left (log2)” value is on record?
**A.** -0.0602

**Q.** GGACGGA was tested. Which “uncleaved DNA left (log2)” value did it give?
**A.** 0.0191

**Q.** Which “uncleaved DNA left (log2)” value does the source give for ACCCATG here?
**A.** 0.106

**Q.** How did the “uncleaved DNA left (log2)” value turn out when ATTCATA was run?
**A.** 0.0271

**Q.** For GTTACCG, which “uncleaved DNA left (log2)” value is on record?
**A.** -0.0326

**Q.** Which “uncleaved DNA left (log2)” value does the source give for GTCACAT here?
**A.** 0.0882

**Q.** For GTGCTCG, which “uncleaved DNA left (log2)” value is on record?
**A.** 0.00976

**Q.** With ACCAATA as the sequence, how does the “uncleaved DNA left (log2)” value read?
**A.** 0.0974

**Q.** With ATTCCTG as the sequence, how does the “uncleaved DNA left (log2)” value read?
**A.** -0.039

**Q.** How did the “uncleaved DNA left (log2)” value turn out when CCATTTT was run?
**A.** -0.15

**Q.** How did the “uncleaved DNA left (log2)” value turn out when GACACAA was run?
**A.** 0.0323

**Q.** With CGAGAGA as the sequence, how does the “uncleaved DNA left (log2)” value read?
**A.** 0.0153

**Q.** Which “uncleaved DNA left (log2)” value does the source give for CCTGGTG here?
**A.** 0.0502

**Q.** CATTTCC was tested. Which “uncleaved DNA left (log2)” value did it give?
**A.** -0.178

**Q.** How did the “uncleaved DNA left (log2)” value turn out when TATTCCT was run?
**A.** -0.223

**Q.** Which “uncleaved DNA left (log2)” value does the source give for GCCCATT here?
**A.** -0.3

**Q.** Which “uncleaved DNA left (log2)” value does the source give for GTGTTTA here?
**A.** 0.037

**Q.** How did the “uncleaved DNA left (log2)” value turn out when GTGCATG was run?
**A.** -0.07

**Q.** How did the “uncleaved DNA left (log2)” value turn out when ATAAGGG was run?
**A.** 0.143

**Q.** GGCTTGA was tested. Which “uncleaved DNA left (log2)” value did it give?
**A.** 0.0501

**Q.** How did the “uncleaved DNA left (log2)” value turn out when TTCGTCA was run?
**A.** -0.0184

**Q.** For GGCGTCA, which “uncleaved DNA left (log2)” value is on record?
**A.** -0.0434

**Q.** For TGATCTT, which “uncleaved DNA left (log2)” value is on record?
**A.** -0.186

**Q.** How did the “uncleaved DNA left (log2)” value turn out when GAGTGTC was run?
**A.** 0.0876

**Q.** How did the “uncleaved DNA left (log2)” value turn out when CACTCAT was run?
**A.** -0.00165
